Among all 310,000 compounds or so, about 14,000 (4.5%) showed an effect of 50% or more. The effect is printed as a negative number. The list shows a part of the results.
Each molecule was assayed against human ether-à-go-go-related gene (hERG) potassium channel (human, UniProt Q12809) (assay: primary screen, population patch clamp on CHO cells stably expressing hERG).
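Further: peak tail current of the secondary pulse compared with the same well before compound.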

Sequence of human ether-à-go-go-related gene (hERG) potassium channel (Q12809 whole entry, looked up): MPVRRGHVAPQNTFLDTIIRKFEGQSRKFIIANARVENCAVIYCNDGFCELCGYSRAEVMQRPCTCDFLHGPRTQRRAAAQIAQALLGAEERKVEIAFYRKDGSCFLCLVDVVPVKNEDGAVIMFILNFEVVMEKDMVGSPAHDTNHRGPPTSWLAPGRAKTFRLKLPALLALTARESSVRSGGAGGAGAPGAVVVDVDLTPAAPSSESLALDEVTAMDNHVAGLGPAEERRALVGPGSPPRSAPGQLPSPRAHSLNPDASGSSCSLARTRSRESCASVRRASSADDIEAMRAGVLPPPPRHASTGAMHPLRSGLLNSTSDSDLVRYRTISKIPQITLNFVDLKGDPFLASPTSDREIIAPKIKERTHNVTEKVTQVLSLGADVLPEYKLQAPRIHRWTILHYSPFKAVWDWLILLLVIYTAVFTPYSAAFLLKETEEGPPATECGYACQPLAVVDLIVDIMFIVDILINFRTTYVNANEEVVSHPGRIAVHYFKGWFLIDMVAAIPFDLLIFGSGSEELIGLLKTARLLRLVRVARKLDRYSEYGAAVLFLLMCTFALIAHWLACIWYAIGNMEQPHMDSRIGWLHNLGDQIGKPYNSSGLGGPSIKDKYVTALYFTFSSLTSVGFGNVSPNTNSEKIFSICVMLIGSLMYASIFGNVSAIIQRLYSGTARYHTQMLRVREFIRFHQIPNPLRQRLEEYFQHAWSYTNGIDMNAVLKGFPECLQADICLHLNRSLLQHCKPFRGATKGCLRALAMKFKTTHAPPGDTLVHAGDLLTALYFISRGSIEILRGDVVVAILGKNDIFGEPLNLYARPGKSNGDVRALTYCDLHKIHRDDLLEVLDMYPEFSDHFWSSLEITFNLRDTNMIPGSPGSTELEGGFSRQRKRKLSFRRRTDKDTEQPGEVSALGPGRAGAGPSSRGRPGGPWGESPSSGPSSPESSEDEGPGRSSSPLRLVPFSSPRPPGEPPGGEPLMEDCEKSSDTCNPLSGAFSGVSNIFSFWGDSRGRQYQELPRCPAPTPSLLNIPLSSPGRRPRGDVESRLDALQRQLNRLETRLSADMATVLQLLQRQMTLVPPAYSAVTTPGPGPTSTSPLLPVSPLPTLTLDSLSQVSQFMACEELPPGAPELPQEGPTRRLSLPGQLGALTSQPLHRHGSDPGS

| Structure (SMILES) | hERG current change (%, negative = inhibition) at 10uM |
| --- | --- |
| C=CCNC(=O)N1CCC(n2nccc2NC(=O)CCc2ccccc2)CC1 | 21.2% |
| COc1cc(Cn2c(=O)oc3ccc(C)cc32)ccc1OC(C)C | -14.9% |
| COc1ccc(CS(=O)(=O)CC(C)(O)c2ccccc2)cc1 (centres unmarked) | 5.3% |
| COc1ccc(NC(=O)Nc2ccc(F)cc2)c(C)c1 | 13.8% |
| CCC1CCCCN1Cc1ccc(OC)c(C)c1C (centres unmarked) | -31.2% |
| Cc1noc(C)c1COC(=O)c1cc(S(=O)(=O)N2CCOCC2)ccc1F | -2.88% |
| Nc1ncc([N+](=O)[O-])c(Oc2ccccc2F)n1 | 24.7% |
| CC1(c2ccc(Cl)cc2Cl)OCC(Cn2cncn2)O1.O=[N+]([O-])O (centres unmarked) | 8.39% |
| O=C(N[C@H]1CCC(=O)N(CCSc2ccc(Br)cc2)CC1)OCc1ccccc1 | -29.2% |
| CC1CCCN(C/C=C/c2ccccc2[N+](=O)[O-])C1 (centres unmarked) | -23.1% |
| COC(=O)c1cc(-c2ccc(Br)cc2)on1 | 8.48% |
| COc1ccc(CNC(=O)c2nnn(Cc3ccc(OC)cc3)c2N)cc1 | -1% |
| CCOc1ccccc1C(=O)Nc1ccccc1-c1ccccc1 | 1.71% |
| O=C(Oc1nsnc1N1CCOCC1)c1ccccc1 | 13.3% |
| COc1ccc(Cl)cc1N(CC(=O)Nc1cccc(SC)c1)S(C)(=O)=O | -9.58% |
| Cc1ccc(CN2CCSCC2)c(C)c1 | 16.9% |
| CCOc1ccc(S(=O)(=O)NCCC(=O)NCC(c2ccc(F)cc2)N2CCOCC2)cc1 (centres unmarked) | -9.62% |
| COc1ccc(/C=C/C(=O)NC(=S)N2CCCC(C(N)=O)C2)cc1 (centres unmarked) | 16.2% |
| COc1cc(/C=N/NC(=O)c2cc(-c3ccccc3)nc3ccccc23)cc(OC)c1O | 12.5% |
| O=C1NC(=S)N/C1=C\c1cccc([N+](=O)[O-])c1 | 14.7% |
| c1ccc(N2N=C(c3cccs3)CC2c2ccco2)cc1 (centres unmarked) | 2.24% |
| CCn1cc([N+](=O)[O-])c(C(=O)Nc2ccn(C34CC5CC(CC(C5)C3)C4)n2)n1 | -1.11% |
| O=C(c1cccc(NS(=O)(=O)c2ccc(Br)cc2)c1)N1CCCCC1 | -6.08% |

| Structure (SMILES) | hERG current change (%, negative = inhibition) at 10uM |
| --- | --- |
| CCOc1cc(/C=C(\C#N)c2nc(-c3cccs3)c(NC(C)=O)s2)ccc1O | -8.81% |
| Cc1nn(-c2ccccc2)c(C)c1C(=O)OCC(=O)N(C)c1ccccc1 | -10.4% |
| Cc1ccc(C)c(S(=O)(=O)N2CCC(c3nc4c(nnn4Cc4ccc5c(c4)OCCO5)c(=O)[nH]3)CC2)c1 | 21.3% |
| CS(=O)(=O)c1ccc(N)c(SSc2cc(S(C)(=O)=O)ccc2N)c1 | 8.37% |
| Clc1ccc(Cn2cnc3ccccc32)cc1 | 7.95% |
| CC(CN1CCCC1)OC(=O)c1ccccc1Cl.Cl (centres unmarked) | 2.62% |
| O=C(COC(=O)c1ccc(O)cc1O)Nc1ncc(Cl)cc1Cl | -7.26% |
| CCCN(CC(=O)Nc1ccccc1OC)C(=O)CCC(=O)c1ccc(OCC)cc1 | -48.9% |
| CCOC(=O)CSc1nn(-c2ccccc2)c(=S)s1 | -5.85% |
| O=C(NC(=S)NCc1ccccc1)c1cccc(Cl)c1 | 10.9% |
| COc1ccc([C@H]2C=C(C(=O)O)O[C@@H](OCCCCO)C2)cc1 | 1.99% |
| O=C(Nc1cc(Oc2ccc(Cl)cc2)cc([N+](=O)[O-])c1)c1ccco1 | 15% |
| O=C(NCC1CCCO1)c1ccc(NC(=O)c2ccc([N+](=O)[O-])cc2)cc1 (centres unmarked) | -2.58% |
| CSC1=NC2(C)CCCCC2C12C=CC(=O)C=C2 (centres unmarked) | -9.44% |
| CN(Cc1c(F)cccc1Cl)C(=O)c1ccc(COc2ccccc2)cc1 | 9.06% |
| O=C1NC(=O)c2cc(NC(=O)C3COc4ccccc4O3)ccc21 (centres unmarked) | 2.93% |
| COC(=O)C1Cc2ccccc2CN1S(=O)(=O)c1ccc(F)cc1 (centres unmarked) | -9.62% |
| COc1ccc(/C(N)=N/OC(=O)c2c(-c3ccccc3Cl)noc2C)cc1OC | 4.73% |
| CCn1c(CC(=O)Nc2ccccc2F)nnc1SCC(=O)NC1CCCCC1 | 16.2% |
| CCc1ccc(CNCc2ccc(OCC(O)CN(C)Cc3ccccc3)cc2)nc1 (centres unmarked) | -17.4% |
| CCC1COC(c2cccn2Cc2ccccc2Cl)=N1 (centres unmarked) | 9.79% |
| CN(C)C(=S)NC(=NCc1ccc([N+](=O)[O-])cc1)c1ccccc1 | -90.7% |
| O=c1cc(CSc2n[nH]c(=O)n2C2CC2)c2ccc(O)cc2o1 | 5.98% |

| Structure (SMILES) | hERG current change (%, negative = inhibition) at 10uM |
| --- | --- |
| COc1cccc2cc(C(=O)OC(C)C(=O)c3ccc(C)cc3)c(=O)oc12 (centres unmarked) | 10.7% |
| Cc1c(Br)c(C(F)(F)F)nn1CC(=O)N1CCCC1 | -2.9% |
| CCOC(=O)c1cccc(NC(=O)C2CCC(CNc3c(N4CCOCC4)c(=O)c3=O)CC2)c1 (centres unmarked) | 10.2% |
| COc1cnn(-c2ccc(C)cc2)c(=O)c1Cl | 14.2% |
| Clc1ccc(Oc2nc3c(Cl)cccc3s2)cc1Cl | 6.55% |
| COC(=O)c1ccc(N=NN2CCCCC2)cc1 | 11.2% |
| COc1cc(OC)c2c(-c3ccccc3)cc(=O)oc2c1C(CC(=O)N1CCN(c2ccccc2)CC1)c1ccc(N(C)C)cc1 (centres unmarked) | 20.7% |
| CCOc1cccc(C(=O)NC2=NCCS2)c1 | -12.9% |
| Cn1c(=NC(=O)CS(=O)(=O)c2ccc(F)cc2)sc2ccccc21 | -7.8% |
| O=c1[nH]c2ccccc2cc1CN(CC1CCCO1)S(=O)(=O)c1ccccc1 (centres unmarked) | -10.3% |
| CC1CCN(S(=O)(=O)N2CCC(C(=O)NCCc3ccccc3)CC2)CC1 | 2.8% |
| Cc1cccc(NC(=O)CN(CCc2ccccc2)S(C)(=O)=O)c1 | 0.679% |
| O=c1oc2c(-c3cccc(F)c3)cc(O)cc2s1 | 8.45% |
| COc1cc(C)c(S(=O)(=O)NOCc2ccccc2)c(C)c1C | -28.6% |
| CCC1CCCCN1C(=O)Nc1cc(Cl)ccc1OC (centres unmarked) | 9.23% |
| COc1ccccc1C(=O)N1CCN(Cc2c[nH]c3ccccc23)CC1.O=C(O)C(=O)O | -19.7% |
| COC(=O)c1ccc(Nc2c([N+](=O)[O-])c(=O)oc3ccccc23)cc1 | 16.9% |
| CCn1c(SCC(=O)NC2CCCC2)nnc1C(C)NC(=O)c1ccccc1Br (centres unmarked) | 21.1% |
| Cn1cccc1Cc1nnc(SCC(=O)NC2CCCC2)n1-c1ccc(F)cc1 | -19% |
| O=C(Nc1ccc(S(=O)(=O)Nc2ncccn2)cc1)c1ccc(Br)o1 | 12.3% |
| Cc1ccc(C(=O)CCC(=O)N2CCN(c3ccccc3O)CC2)cc1 | 5.17% |
| CCOC(=O)Cn1nc(C)c(NC(=O)COc2ccc([N+](=O)[O-])c(C)c2)c1C | -6.24% |
| CCCN(CC(=O)Nc1ccccc1C)C(=O)C1CCN(C(=O)Nc2ccccc2)CC1 | -34.9% |

| Structure (SMILES) | hERG current change (%, negative = inhibition) at 10uM |
| --- | --- |
| CC1(C)CC(=O)c2sc(NC(=O)C(C)(C)C)nc2C1 | -3.28% |
| CC(NC(=O)CNC(=O)C1CCCCC1)c1ccc(S(N)(=O)=O)cc1 (centres unmarked) | 11.5% |
| CCOC(=O)CC1COc2ccccc2N1C(=O)c1ccc(C)cc1 (centres unmarked) | -8.45% |
| O=C(NCCO)/C(=C/c1ccc2c(c1)OCO2)NC(=O)c1ccc(Br)cc1 | -69.5% |
| CC(C)Oc1ccc(C(=O)Nc2ccc(NC(=O)c3ccco3)c(Cl)c2)cc1 | 6.31% |
| COc1ccc(Cn2c(=O)oc3ccccc32)cc1F | 13.4% |
| Cc1ccc(-n2c(O)c(/C=N/n3cnnc3)c3ccccc3c2=O)cc1 [14745934] | 4.8% |
| CCOc1ccc2c(c1)C(C)=CC(C)(C)N2S(=O)(=O)c1ccc(NC(C)=O)cc1 | 10% |
| Cc1ccc(NC(=S)NCC(C)C)cc1 | 21.1% |
| O=C(NCC1CCCO1)c1ccccc1-c1nc(-c2ccccc2Cl)no1 (centres unmarked) | -12.5% |
| O=C(CNC(=O)C1COc2ccccc2O1)N/N=C/c1cc(Br)c(O)c(Br)c1 (centres unmarked) | -7.99% |
| Nc1n[nH]c(-c2ccccc2)c1-c1ccccc1 | -10.3% |
| Cc1cccnc1NC(=O)c1ccc(Cl)c(S(=O)(=O)N2CCCCC2)c1 | -21.7% |
| O=C(CN1CCCC1)Nc1cccc(Cl)c1Cl | 17.1% |
| Cc1[nH]n(-c2ccccc2)c(=O)c1-c1ccccc1 | -7.81% |
| Cc1nc(SCC(=O)Nc2ccc(N3CCOCC3)cc2)nc(C)c1C | -2.45% |
| CC(=O)c1cccc(NC(=S)N2CCN(S(C)(=O)=O)CC2)c1 | 16.8% |
| Cc1cc(C)n(CC(=O)NC2CCCc3c2cnn3-c2ccc(C)c(C)c2)n1 (centres unmarked) | -1.49% |
| CCC1(CC)NC(=O)N(CC(=O)OCC(=O)NC(=O)c2ccccc2)C1=O | 5.41% |
| CCOCC(=O)Nc1ccc(S(=O)(=O)NCC2CCCO2)cc1 (centres unmarked) | 18.5% |
